Reference: PubChem BioAssay AID651820 (National Center for Advancing Translational Sciences (NCATS), 2012)
About 12,000 (3.5%) of roughly 340,000 compounds were called active. The shares of active, inactive and inconclusive entries below differ from those in the screen. Calls come from the whole dose curve; as a rule, active = well fitted inhibition curve with a large enough effect; inconclusive = small, poorly fitted or top-dose-only effect, or another doubt; inactive = no such curve, though single readings can be large or run the other way. No potency is given beside an inconclusive call; the fits are too rough.

assay: qHTS Assay for Inhibitors of Hepatitis C Virus (HCV); conditions: Huh7.5.1 HCVcc-Cre (HCVcc is cell-culture hepatitis C virus) infection, luciferase reporter, 44 h; activity change, negative = inhibition: at 41.8 µM (top of the series) unless noted
Outline: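 Whole-lifecycle infectious HCVcc-Cre system; cells 1,000/well, compound then virus (~0.5 moi) added 4 h after plating, 44 h culture. Luciferase read 15 sec following 15 min substrate incubation, room temp.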
% is set by controls: 0 for no effect and ±100 for the full control effect; potency is the fitted concentration of half-maximal effect; tags give direction and shape of the fitted curve.

Row | Structure (SMILES) | activity change, negative = inhibition | Potency
1 | CNc1cc(-n2nc(C)cc2-c2ccccc2)ncn1 | inactive: -19.5% | 
2 | Cc1nn2c(=O)cc(COC(=O)c3ccc(NC(=O)C(C)(C)C)cc3)nc2s1 |  | inconclusive [inhibitor, single point]
3 | O=c1cc(CSc2ccccc2)[nH]c2ccccc12 |  | inconclusive [inhibitor, partial curve]
4 | O=C(CCc1ccccc1)Nc1ccc(NS(=O)(=O)c2ccccc2)cc1 |  | inconclusive [inhibitor, single point]
5 | COc1ccc(NC(C)C(=O)Nc2cccc(S(=O)(=O)N3CCOCC3)c2)cc1OC (stereo not drawn) |  | active: 12.6 µM
6 | CCS(=O)(=O)N1CCC(c2nc(-c3ccc(C)cc3)no2)CC1 |  | inconclusive [inhibitor, single point]
7 | Cc1cc(C(=O)CSc2nc(N)cc(=O)[nH]2)c(C)n1-c1cccc(F)c1 |  | inconclusive [inhibitor, single point]
8 | CC(NC(=S)N1CCN(c2ccccc2)CC1)c1ccccc1 (stereo not drawn) | inactive: 11.2% | 
9 | COc1cc(OC)cc(C(=O)Nn2cc(C(=O)Nc3c(F)cccc3F)c3ccccc3c2=O)c1 |  | inconclusive [inhibitor, single point]
10 | CCOc1c(Br)cc(CNc2ccc(N3CCN(C(C)=O)CC3)cc2)cc1OC |  | inconclusive [inhibitor, partial curve]
11 | COc1ccc(Cl)cc1NC(=O)C(C)N1CCc2ccccc21 (stereo not drawn) |  | inconclusive [inhibitor, full curve]
12 | C(#Cc1ccccc1)C[N+]1(CC#Cc2ccccc2)CCCC1 | inactive: -17.9% | 
13 | Cc1csc(NC(=O)CSc2ncnc3c2cnn3-c2ccccc2Cl)n1 |  | active: 17.8 µM
14 | COc1cccc(N=Nc2c(C)[nH]n(-c3ccccc3)c2=O)c1 |  | inconclusive [inhibitor, partial curve]
15 | CCOC(=O)c1cn(Cc2ccccc2)c(C(=O)OC(C)(C)C)c1O |  | inconclusive [inhibitor, single point]
16 | Cc1cc(C)cc(-n2c(C)cc(/C=N/NC(=O)c3cccc([N+](=O)[O-])c3C)c2C)c1 |  | active: 3.98 µM
17 | O=C(OCC(=O)N1CCN(C(=O)c2ccco2)CC1)c1cccc(S(=O)(=O)N2CCc3ccccc32)c1 |  | inconclusive [inhibitor, single point]
18 | COc1ccc(CCNCC(C)c2ccccc2)cc1 (stereo not drawn) | inactive: 29.3% | 
19 | COc1ccc2c(c1OC)C(=O)OC2N1C(=O)CC[C@H]1C(=O)NCC1CCCO1 (stereo partly drawn) |  | active: 0.562 µM
20 | CCOc1cc2[nH]c(=S)n(CC3CCCN3CC)c(=O)c2cc1OCC (stereo not drawn) |  | inconclusive [inhibitor, single point]
21 | OCCN1CCN(c2nc(NCc3ccco3)c3ccccc3n2)CC1 |  | inconclusive [inhibitor, single point]
22 | COc1ccccc1-c1cccc([C@@H]2C[C@H]3[C@H](CON3C)CN2C)c1 |  | inconclusive [inhibitor, single point]
23 | Cn1cc(CNCc2ccccc2OCC(O)CN2CCc3ccccc3C2)cn1 (stereo not drawn) |  | active: 11.2 µM

Row | Structure (SMILES) | activity change, negative = inhibition | Potency
24 | CCN(CC)CCC(c1cc(OC)c(OC)c(OC)c1)c1c(OC)cc(OC)c2c(-c3ccccc3)cc(=O)oc12 (stereo not drawn) |  | inconclusive [inhibitor, single point]
25 | Cc1cc(NC(=O)C(C)SCC(=O)Nc2cc(Cl)ccc2N2CCN(C)CC2)no1 (stereo not drawn) |  | inconclusive [inhibitor, single point]
26 | COc1cc(NC(=O)c2ccccc2)c(OC)cc1NC(=O)CSc1[nH]c(=O)cc(C)c1C#N |  | inconclusive [inhibitor, full curve, poor fit]
27 | Cn1c(=O)[nH]c(=O)c2c1nc(Br)n2CCCCSc1nc2ccccc2o1 |  | active: 12.6 µM
28 | Cc1cc(C)n(CC(=O)N2c3ccccc3Sc3ccc(C(F)(F)F)cc32)n1 |  | inconclusive [inhibitor, single point]
29 | Cc1ccc(C(=O)NC2CCCCNC2=O)cc1C (stereo not drawn) | inactive: 4.5% | 
30 | COc1ccc(NCc2ccccc2[N+](=O)[O-])cc1OC | inactive: -5.05% | 
31 | O=C(Cn1c2ccccc2c(=O)c2ccccc21)N/N=C/c1cc([N+](=O)[O-])ccc1N1CCCCC1 |  | inconclusive [inhibitor, full curve]
32 | CC(=O)c1ccc(S(=O)(=O)N2CCN(C(=O)c3cccc(S(=O)(=O)N4CC(C)OC(C)C4)c3)CC2)cc1 (stereo not drawn) | inactive: 0.359% | 
33 | COc1ccc(CC2c3cc(OC)c(OC)cc3CC[N+]2(C)CCC(=O)OCCCCCOC(=O)CC[N+]2(C)CCc3cc(OC)c(OC)cc3C2Cc2ccc(OC)c(OC)c2)cc1OC (stereo not drawn) |  | inconclusive [inhibitor, single point]
34 | CCCOC(=O)c1c(NC(=O)/C=C/c2cnn(C)c2C)sc(C(=O)OCC)c1C |  | inconclusive [inhibitor, full curve, poor fit]
35 | CC(=O)Nc1ccc(S(=O)(=O)NCC2CCC(C(=O)NCc3ccccc3)CC2)cc1 (stereo not drawn) | inactive: -0.898% | 
36 | O=C(NCCCN1CCCC1=O)c1ccccc1NS(=O)(=O)c1ccc(F)cc1 | inactive: 13.4% | 
37 | Cc1ccc2[nH]c3c(NCc4ccccc4)ncnc3c2c1 |  | active: 7.94 µM
38 | CCN(CC)S(=O)(=O)c1cc([N+](=O)[O-])ccc1NNC(=O)Nc1ccc(Cl)c(Cl)c1 |  | inconclusive [inhibitor, partial curve, poor fit]
39 | O=C(Nc1ccc(C(=O)N2CCOCC2)cc1)c1cc(-c2cccnc2)nc2ccc(Br)cc12 |  | inconclusive [inhibitor, partial curve]
40 | O=[N+]([O-])c1cc(S(=O)(=O)NCCN2CCOCC2)ccc1Sc1nnnn1-c1ccccc1 |  | inconclusive [inhibitor, single point]
41 | CCCCC(=O)NC(c1ccco1)c1cc(Cl)c2cccnc2c1O (stereo not drawn) |  | active: 8.91 µM
42 | Cc1ccc(N2CN(CCC3=CCCCC3)CNC2=S)cc1 |  | inconclusive [inhibitor, single point]
43 | COc1ccc(N(C)S(=O)(=O)c2ccc3c(c2)NC(=O)CO3)c(OC)c1 | inactive: -12.1% | 
44 | COc1cc(C(=O)NCc2nnc(SCC(=O)NCCc3ccccc3)o2)cc(OC)c1OC |  | inconclusive [inhibitor, single point]
45 | COc1ccc(/C=N/Nc2cc(C)nc3ccc(OC)cc23)c(OC)c1 |  | active: 10 µM
46 | CCOC1=NN(c2ncc(C(F)(F)F)cc2Cl)C(=O)/C1=C/N(C)C | inactive: 5.87% | 

Row | Structure (SMILES) | activity change, negative = inhibition | Potency
47 | CCCCOc1ccc(C(=O)NNC(=O)c2cnccn2)cc1OC |  | active: 12.6 µM
48 | O=C(c1ccc(CNS(=O)(=O)c2ccccc2)cc1)N1CCN(Cc2ccccc2)CC1 |  | active: 11.2 µM
49 | O=C(CCc1nc2ccccc2c(=O)[nH]1)Nc1nc(-c2cccs2)cs1 |  | inconclusive [inhibitor, partial curve, poor fit]
50 | O=C1C2C3C=CC(C4CC34)C2C(=O)N1/N=C/c1ccc(-c2ccc(Cl)cc2[N+](=O)[O-])o1 (stereo not drawn) |  | inconclusive [inhibitor, single point]
51 | NS(=O)(=O)c1ccc(CCNC(=O)Nc2ccc(Cl)c(Cl)c2)cc1 |  | inconclusive [inhibitor, single point]
52 | CCCCc1nc(SCC(=O)N2CCCCC2)c2c(=O)n(C)c(=O)n(C)c2n1 |  | inconclusive [inhibitor, partial curve]
53 | CCc1ccccc1NC(=O)Nc1ccc2c(c1)OCO2 |  | inconclusive [inhibitor, single point]
54 | CC(=O)c1cccc(NC(=O)C2CCCN(S(=O)(=O)c3cccc4nonc34)C2)c1 (stereo not drawn) |  | inconclusive [inhibitor, single point]
55 | COc1ccc(-c2csc(NC(=S)NC(=O)/C=C/c3ccco3)n2)cc1OC | inactive: -14% | 
56 | O=C(NCc1ccco1)c1ccc(S(=O)(=O)N2CCCc3ccccc32)cc1 | inactive: 16% | 
57 | Cc1ccc(C#N)c(SCCN2CCCCC2)n1 | inactive: -8.09% | 
58 | COc1ccccc1NC(C)C(=O)N/N=C/c1ccccc1OCc1cccc(Br)c1 (stereo not drawn) |  | inconclusive [inhibitor, partial curve]
59 | CC(C)N(C(=O)[C@H]1CC(CC(=O)NCc2cccc(C(F)(F)F)c2)C(=O)N2CCc3c([nH]c4ccccc34)[C@]12C)C(C)C (stereo partly drawn) |  | active: 10 µM
60 | Cc1ccc(OCCSCc2nnc(NC(=O)Nc3cccc(Cl)c3)s2)cc1 |  | inconclusive [inhibitor, single point]
61 | Cc1ccc(N(C)S(=O)(=O)c2cccc(C(=O)N(C)Cc3cnn(-c4ccccc4)c3)c2)cc1 |  | inconclusive [inhibitor, partial curve]
62 | Cc1ccc(Cl)c(OCC(=O)Nc2ccc(S(=O)(=O)NC3=NCCCCC3)cc2)c1 |  | inconclusive [inhibitor, partial curve]
63 | OCCCNc1nc(-c2ccc(Br)cc2)nnc1-c1ccc(Cl)cc1 |  | inconclusive [inhibitor, partial curve]
64 | COc1ccc(NC(=O)c2ccc(NCC3CCCO3)c([N+](=O)[O-])c2)cc1 (stereo not drawn) |  | inconclusive [inhibitor, partial curve]
65 | S=C(NC1CCCC1)N1CCN(c2cccc(Cl)c2)CC1 |  | active: 12.6 µM
66 | O=C(c1ccccc1)c1ccc(OCCCN2CCCC2)cc1 | inactive: 35.5% | 
67 | Cc1ccc(C(=O)N2CCN(c3ncnc4c(C)csc34)CC2)cc1 |  | inconclusive [inhibitor, single point]
68 | CCN(CC)S(=O)(=O)c1cc(NC(=O)C2Cc3ccccc3C(=O)O2)ccc1C (stereo not drawn) |  | inconclusive [inhibitor, partial curve]
